Our source for the self-cleavage values is the RNAGym collection of RNA variant scans (doi:10.7554/elife.90254).

The source gives no read counts; variants with many changes may rest on few reads.

B1: LINE1-mini (parent)
chain: GGCAGAGCUCAACACAGCGUGGCAAAGUGGCUGUGGCUAGACUGCC

This data set covers variants of B1. Nature of the data set: self-cleavage, relative activity (ratio to wild type); higher = more cleavage; in vitro, sequencing; the parent is a self-cleaving ribozyme.
Consider CGCAGAGCUCCACACAGCGGGGCAAAGUGGCUGUGGCAAGACUGCC [G1C A11C U20G U38A], for which the self-cleavage stood at 0.

For the variant AGCAGAGCUCAACACAGCGGGGCAAAGUCGCUGUGUCUAGACUGCC [G1A U20G G29C G36U], the self-cleavage stood at 0.02.

Consider AGCAGAGCUCAACACAGCGUGGCAAAGUGGCUGUGGCUACAGUGCC [G1A G40C C42G], for which the self-cleavage is 0.06.

For AGCAGAGCGCAACACAGCGUGGAAAAGUGGCUCUGGCUAGACUGCC [G1A U9G C23A G33C], the self-cleavage was 0.05.

Regarding CGCCGAGCUCAACACAGCGUGGCAAAGUGCCUGUGGCUAGGCUUCC [G1C A4C G30C A41G G44U], the self-cleavage amounted to 0.03.

CGCAGGGCUCAACACAGCGUGGCAAAGUGGCUGUGGCUCGACUGCC [G1C A6G A39C]: the self-cleavage was determined as 0.04.

Consider CGCAGGGCUCAAUACUGCGUGGCAAAGUGGCUGUGGCUAGACUGCC [G1C A6G C13U A16U], for which the self-cleavage came out at 0.01.

As for AGCAGAGCUCAACACAGCGUGGCAAAGUGGCUGUAGCCAGACUGCC [G1A G35A U38C], the self-cleavage was 0.09.

As for AGCAGAGCUCAACACAGCGUGGCAAAGUUGCUAUGGCUAGACUGCC [G1A G29U G33A], the self-cleavage came out at 0.1.

Consider CGCUGAGCUCAACACAUCGUGGCAAAGUGGCUGUGGCUAGACUGCA [G1C A4U G17U C46A], for which the self-cleavage was found to be 0.03.

As to CGCGGAGCCCAACACAGAGUGGGAAUGUGGCUGUUGAUAGACUGCA [G1C A4G U9C C18A C23G A26U G35U C37A C46A], the self-cleavage was 0.

CGCAGAGCUCCACACAGCGUGGCAGAGUGGCUGUGGCUAGACAGCC [G1C A11C A25G U43A]: the self-cleavage came out at 0.

With CGCAGAGCUCCACACAGCGUGGAAAAGUGGCUAUGGCCAGACUGCC [G1C A11C C23A G33A U38C], the self-cleavage turned out to be 0.01.

Take CGCAGCGCUCAAGACAGCGUGGUAAAGUGGCUUGGGCUAGACUGCG [G1C A6C C13G C23U G33U U34G C46G]: the self-cleavage amounted to 0.01.

Regarding CGCUGAGCUCUACACAGCGUGGCAAAGUGGCUUUGACUAGACUGCA [G1C A4U A11U G33U G36A C46A], the self-cleavage came to 0.01.

With CGCUGAGCUCAAUACAGCGUGGCAAAGUGACUGUGGCUAGACUGCC [G1C A4U C13U G30A], the self-cleavage came out at 0.07.

As to CGCAGAGCUCCACACAACGUGGCAAAGUGGCUGUGGCUAGACUGCC [G1C A11C G17A], the self-cleavage amounted to 0.02.

In the case of AGCAGAGCUCAACACAGCGUGGCAAAGAGGCUGUGGAUAGUCUGCC [G1A U28A C37A A41U], the self-cleavage stood at 0.15.

Regarding AGCAGAGCUCAACACAGCGUGGCAAAGAGGCAGUGGCUAGACUGCC [G1A U28A U32A], the self-cleavage worked out at 0.04.

As for AGCAGAGCUCAACACAGCGUGGCAAAGUGUCUGUGGCUAGACUGUC [G1A G30U C45U], the self-cleavage came out at 0.37.

Regarding CGCAGGGAUCAACACACCGUGGCAAAGUGGCUGUGGCAAGACUGCC [G1C A6G C8A G17C U38A], the self-cleavage amounted to 0.07.

In the case of AGCAGAGCCCAAGGCAGCGUGGCAAAGUGGCUGUGGCCAGACUGCC [G1A U9C C13G A14G U38C], the self-cleavage amounted to 0.05.

As for CGCAGUGCUCAACGCAGCGAGGCAAAGUGGCUGUGGCUAGACUGCC [G1C A6U A14G U20A], the self-cleavage is 0.05.

For CGCAGAGCUCCACACUGCGUGGCAAAGUGGCUCUGGCUAGACUGCC [G1C A11C A16U G33C], the self-cleavage turned out to be 0.01.

For AGCAGAGCGUAACACAGCGUGGCAAAGUUGCUGUGGCUAGACUGCC [G1A U9G C10U G29U], the self-cleavage was 0.18.

For the variant CGCUGAGCUCCACACAGCGUGGCAAAGUGGCUGUGGGGAGACUGCC [G1C A4U A11C C37G U38G], the self-cleavage was found to be 0.01.

On to CGCAGUGCCCAACACAGCGUGGCAAAUUGGCUGUGGCUAGACUGCC [G1C A6U U9C G27U], for which the self-cleavage amounted to 0.02.

On to CGCAGAGCUCCACACAGCGUGGCAAAGUGGCUGUGGAUUGAUUGCC [G1C A11C C37A A39U C42U], for which the self-cleavage stood at 0.04.

Turning to AGCAGAGCGCACCUAAGCGAGGCAAAGCGGCUGUGGCUAGACUGCC [G1A U9G A12C A14U C15A U20A U28C], the self-cleavage is 0.

Turning to AGCAGAGCCCUACACAGCGUGGCCAAGUACCUCUGGCUUGACUGCC [G1A U9C A11U A24C G29A G30C G33C A39U], the self-cleavage was 0.02.

AGCAGAGCGCCACACAGCGUGUCAAAGUGGCUGUGGCUAGACUGCC [G1A U9G A11C G22U]: the self-cleavage is 0.02.

Turning to AGCAGAGCUCAACACAGCGUGGCAAAGUGGCAGUGGCUAGGCUGCC [G1A U32A A41G], the self-cleavage amounted to 0.02.

On to AGCAGAGCUCAACACAGCGUGGCAAAGUGGCUCUGGUUUGACUGCC [G1A G33C C37U A39U], for which the self-cleavage is 0.05.

For the variant CGCCGAGCUCAACACAGCGUGGCAAAGUGGCUGUGGGUAGACUGCC [G1C A4C C37G], the self-cleavage worked out at 0.04.

Consider CGCGGAGCUCAAGACAGCUUCGCAAAGUAGCUGUGGCUAGACUGCC [G1C A4G C13G G19U G21C G29A], for which the self-cleavage is 0.

With CGCAGCGCUAAACACAGCGUGGCAAACUGGCUGUGGCUAGACUGCC [G1C A6C C10A G27C], the self-cleavage worked out at 0.03.

Take AGCAGAGCUCAACACAGCGCGAUAUAGUGGCUGUGGCUAGACUGCC [G1A U20C G22A C23U A25U]: the self-cleavage was determined as 0.2.

In the case of AGCAGAGCCCAACACAGCGUGGCAAAGUGGCUUUGGCUAGACUGCC [G1A U9C G33U], the self-cleavage came to 0.

For CGCAGCGCUCAUCACAGCGUGGCAAAGUUGCUGUGGCUAGACUGAC [G1C A6C A12U G29U C45A], the self-cleavage stood at 0.

Take CGCCGAGCUCAACACAGCGUGGCAAAGUGGCUGUAGCUAGACUGCC [G1C A4C G35A]: the self-cleavage came to 0.06.

Regarding CGCAGGGCUCAACACAGCGUGACAAAGUGGCUGUGGCUAGACUGUC [G1C A6G G22A C45U], the self-cleavage was determined as 0.01.

With AGCAGAGCACAACACAGCGUGGCGAAGUGGCUGCUGCUAGUCUGCC [G1A U9A A24G U34C G35U A41U], the self-cleavage was determined as 0.24.

For the variant AGCAGAGCUCAACACAGCGUGGCAAAGUGGCUGUGUCUAGACUGCA [G1A G36U C46A], the self-cleavage was determined as 1.01.

Regarding AGCAGAGCUCAACACAGCGCGGCAAAGUGGCUGUGGCUAUACUGCC [G1A U20C G40U], the self-cleavage worked out at 0.06.

AGCAGAGCUCAACACAGCGUGGCAAAGUGGCUAUGGCUUGACUGCC [G1A G33A A39U]: the self-cleavage worked out at 0.07.

Regarding CGCAGGGCUCAAGAAAGCGCAGCAAAGUGGCUGUGGCUAGACUGCC [G1C A6G C13G C15A U20C G21A], the self-cleavage came out at 0.

As for CGCGGAGCUUAACACAGCGUGGCAAAGUGGCUGUGGCUAGACUGCC [G1C A4G C10U], the self-cleavage was 0.07.

As for AGCAGAGCUCAACACAGCGUGGCAAAGUGGCUGAGGCAAGACUGCU [G1A U34A U38A C46U], the self-cleavage turned out to be 0.53.

As to AGCAGAGCUCAACACAGCGUGGCAAAGUGACUGUGGCCAGACUGCC [G1A G30A U38C], the self-cleavage came out at 1.56.

On to AGCAGAGCUCAACACAGCGUGGCAAAGUGGCUUUGGCUAGAAUGGC [G1A G33U C42A C45G], for which the self-cleavage came out at 0.04.

For the variant AGCAGAGCCCAACACAGCGUGUCAAAUUGGCUGUUGCUAGACUGCC [G1A U9C G22U G27U G35U], the self-cleavage turned out to be 0.37.

With AGCAGAGCUCAACACAGCGUGGCAAAGUGGCUGUGGCUAGACUUAC [G1A G44U C45A], the self-cleavage was 0.22.

AGCAGAGCUCAACACAGCGUGGCAAAGUGGCCGCGGCUAGACUGCC [G1A U32C U34C]: the self-cleavage came to 0.04.

In the case of CGCAGCGCUCAACAUAGUGUGGCUAAGUGGCUGUGGCUAGACUGCC [G1C A6C C15U C18U A24U], the self-cleavage came out at 0.01.

AGCAGAGCGCAACACAGAGUGGCAAACUGGCUGUGGCUAGACUGCC [G1A U9G C18A G27C]: the self-cleavage is 0.56.

Turning to AGCAGAGCACCACACAGCGUGGUACAGUCGCUGUGGCUAGACUGCC [G1A U9A A11C C23U A25C G29C], the self-cleavage amounted to 0.
